Among all 310,000 compounds or so, about 2,200 (0.71%) showed an effect of 50% or more. Effects have a minus sign here. The list shows a part of the results.

This assay deals with human ether-à-go-go-related gene (hERG) potassium channel (human, UniProt Q12809). The assay can be described thus: primary screen, population patch clamp on CHO cells stably expressing hERG.
Sequence of human ether-à-go-go-related gene (hERG) potassium channel (Q12809 whole entry, looked up): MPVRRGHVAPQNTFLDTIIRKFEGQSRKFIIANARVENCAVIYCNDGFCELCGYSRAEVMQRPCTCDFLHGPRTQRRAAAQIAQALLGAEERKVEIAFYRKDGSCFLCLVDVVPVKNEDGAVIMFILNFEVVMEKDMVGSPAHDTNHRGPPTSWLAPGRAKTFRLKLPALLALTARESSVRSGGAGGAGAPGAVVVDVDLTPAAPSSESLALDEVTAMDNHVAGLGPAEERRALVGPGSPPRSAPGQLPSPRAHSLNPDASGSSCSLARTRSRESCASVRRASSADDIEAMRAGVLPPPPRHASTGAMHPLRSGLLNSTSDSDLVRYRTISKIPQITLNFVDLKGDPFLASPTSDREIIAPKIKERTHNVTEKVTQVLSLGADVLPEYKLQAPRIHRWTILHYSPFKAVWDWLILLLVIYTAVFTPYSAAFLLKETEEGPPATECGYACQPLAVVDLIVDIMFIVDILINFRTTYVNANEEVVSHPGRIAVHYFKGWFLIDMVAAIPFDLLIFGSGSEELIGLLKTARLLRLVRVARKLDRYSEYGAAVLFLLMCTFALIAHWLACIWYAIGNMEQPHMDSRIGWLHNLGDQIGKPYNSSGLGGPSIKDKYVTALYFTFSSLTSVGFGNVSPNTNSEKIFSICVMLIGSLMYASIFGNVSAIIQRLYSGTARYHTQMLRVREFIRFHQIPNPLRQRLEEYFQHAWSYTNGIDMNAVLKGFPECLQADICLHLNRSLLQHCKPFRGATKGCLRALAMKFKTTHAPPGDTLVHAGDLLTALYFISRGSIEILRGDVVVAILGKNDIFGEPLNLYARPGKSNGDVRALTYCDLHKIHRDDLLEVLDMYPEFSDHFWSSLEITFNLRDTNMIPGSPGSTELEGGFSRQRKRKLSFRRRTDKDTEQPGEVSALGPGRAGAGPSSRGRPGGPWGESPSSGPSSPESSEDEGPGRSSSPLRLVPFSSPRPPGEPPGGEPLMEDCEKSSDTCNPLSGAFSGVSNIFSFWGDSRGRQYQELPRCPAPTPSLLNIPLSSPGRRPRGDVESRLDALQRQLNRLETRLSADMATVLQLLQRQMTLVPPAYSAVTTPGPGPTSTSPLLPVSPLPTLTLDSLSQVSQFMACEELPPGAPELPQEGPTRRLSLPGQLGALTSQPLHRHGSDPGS
As to `CCN(CC)CCc1nc(-c2ccccc2)no1.O=C(O)CC(O)(CC(=O)O)C(=O)O`, the “hERG current change (%, negative = inhibition) at 1uM” value turned out to be 1.1%. Consider `COC(=O)[C@]1(S(=O)(=O)c2ccccc2)C[C@@H]2ON=C(c3ccc(OC)cc3)[C@@H]2C1`, for which the “hERG current change (%, negative = inhibition) at 1uM” value was 13.7%. For the compound `COc1ccccc1NC(=O)COc1cc(Br)c(CNCCCN2CCOCC2)cc1OC`, the “hERG current change (%, negative = inhibition) at 1uM” value stood at 1.42%. Then `CCN(CC(=O)Nc1ccc(OC)cc1)C(=O)CCS(=O)(=O)c1ccc(C)cc1`, with 7.4%; and `Cn1nnnc1NCc1ccc(Cl)cc1`, with 9.28%.

Regarding `COc1cc(/C=C2/NC(=O)N(Cc3ccccc3F)C2=O)cc(OC)c1O`, the “hERG current change (%, negative = inhibition) at 1uM” value was 13.1%.

In the case of `CN1CCN(c2ncnc3c2[nH]c2ccc(F)cc23)CC1`, the “hERG current change (%, negative = inhibition) at 1uM” value was found to be 0.787%. `Cc1ccc(/C=N/NC(=O)c2cc(-c3ccccc3)nc3ccccc23)o1`: the “hERG current change (%, negative = inhibition) at 1uM” value is recorded as 11.9%. For `Cc1ccccc1OCc1nc2ccccc2c(=O)n1/N=C/c1cccc([N+](=O)[O-])c1`, the “hERG current change (%, negative = inhibition) at 1uM” value is given as 4.97%. As for `Cc1cc(-c2n[nH]c(=S)n2/N=C/C=C/c2ccccc2)n[nH]1`, the “hERG current change (%, negative = inhibition) at 1uM” value came out at 8.99%. For the compound `Cc1ccc(S(=O)(=O)N(C(=O)c2ccncc2)c2ccc3oc4c(c3c2)CCCC4)cc1[N+](=O)[O-]`, the “hERG current change (%, negative = inhibition) at 1uM” value was found to be 19.2%. Regarding `C=CCn1nnnc1SCC(=O)Nc1ccccc1C(=O)OC`, the “hERG current change (%, negative = inhibition) at 1uM” value is listed as 3.49%.

As to `Clc1cc(Br)ccc1OCCCn1ccnc1`, the “hERG current change (%, negative = inhibition) at 1uM” value is -10.5%. Then `CCOc1cc(S(=O)(=O)NCc2ccccc2)c(OCC)cc1-n1cnnn1`, with -2.65%; and `CC1CCN(c2c(NCC3CCC(C(=O)NCc4ccc(F)cc4)CC3)c(=O)c2=O)CC1` (centres unmarked), with 2.08%. Then `Cl.Oc1ccc(C(c2nnnn2C2CCCC2)N2CCc3ccccc3C2)cc1` (centres unmarked), with 7.87%; and `Cl.Nn1cnnc1N/N=C/c1ccc(Cl)cc1Cl`, with 9.63%; and `COc1ccc(S(=O)(=O)NC(CC(=O)N2CCc3ccccc32)c2ccco2)cc1` (centres unmarked), with 14.7%.

In the case of `CCOC(=O)CNC(=O)c1cnc(Nc2ccccc2OC)c2ccccc12`, the “hERG current change (%, negative = inhibition) at 1uM” value was found to be 10.6%. In the case of `O=C(COc1ccccc1)Nc1ccc2[nH]ncc2c1`, the “hERG current change (%, negative = inhibition) at 1uM” value came out at 17.6%. Next, `CCc1noc(C)c1C(=O)N(Cc1ccccc1)c1c(N)n(CCOC)c(=O)[nH]c1=O`: 12.1%. On to `C=CCn1c(C)nnc1SCC(=O)NC1CCCCC1`, for which the “hERG current change (%, negative = inhibition) at 1uM” value came to 6.97%. Next, `Cc1ccc(C(=O)Cn2c(C(=O)/C=C/c3ccccc3)nc3ccccc32)cc1`: -7.28%; `Cc1cccc(C(=O)OCC(=O)Nc2nccs2)c1`: 1.03%; `O=C(N/N=C/c1ccc(O)cc1)c1csc2c1CCCC2`: -4.91%. Take `COc1ccccc1C(=O)NCC(=O)NCc1cc(=O)n(C)c(=O)n1C`: the “hERG current change (%, negative = inhibition) at 1uM” value is 19.7%. Then `CCCc1[nH]n(-c2nc3ccccc3s2)c(=O)c1C=NCCCOC`, with -9.11%; and `CCCC(=O)C1=C(N(C)c2ccccc2)CC(C)(C)CC1=O`, with 13.8%; and `O=C(OCCN(C1=NS(=O)(=O)c2ccccc21)c1ccc(Cl)cc1)c1ccco1`, with -2.25%.

For `Cc1ccnc(NC(=O)C2CCN(S(=O)(=O)c3cccc(C(F)(F)F)c3)CC2)c1`, the “hERG current change (%, negative = inhibition) at 1uM” value stood at 19.5%. `CCCN(CCC)S(=O)(=O)c1ccc(C(=O)Nc2nc(-c3ccccc3)c(C(=O)OCC)s2)cc1`: the “hERG current change (%, negative = inhibition) at 1uM” value was found to be 2.08%.

For `Cc1cc(C)n(Cc2ccc(NC(=O)c3c([N+](=O)[O-])c(C)nn3C)cc2)n1`, the “hERG current change (%, negative = inhibition) at 1uM” value turned out to be 9.05%.

As for `CC1C(=O)N2CCCc3cc(S(=O)(=O)N4CCN(c5cccc(Cl)c5)CC4)cc1c32` (centres unmarked), the “hERG current change (%, negative = inhibition) at 1uM” value stood at 0.539%. Then `COc1ccc(-c2csc(NC(=O)c3ccc(OCC(=O)N4CCOCC4)c(OC)c3)n2)cc1OC`, with 4.61%; and `CC(=O)NS(=O)(=O)c1ccc(NC(=O)c2ccc3c(c2)C(=O)N(CCC(C)C)C3=O)cc1`, with 13.2%. Then `COc1ccc2cc(C(=O)NCC3CCCO3)[nH]c2c1` (centres unmarked), with 21.7%. Then `Cc1cc(=O)oc2cc(OCC(=O)N3C[C@H]4C[C@@H](C3)c3cccc(=O)n3C4)ccc12`, with 9.1%; and `O=C(CN(c1ccc(F)cc1)S(=O)(=O)c1ccc2c(c1)OCCO2)NCC1CCCO1` (centres unmarked), with 3.24%; and `COc1ccc(C2=NS(=O)(=O)N(C)C(C(=O)Nc3ccc(F)cc3F)=C2)cc1`, with 15%. As for `Cc1ccccc1NC(=O)CN1C(=O)N/C(=C\c2cccn2-c2cccc(C(=O)O)c2)C1=O`, the “hERG current change (%, negative = inhibition) at 1uM” value was found to be 17.8%.

In the case of `Nc1ncc(-n2cncn2)c(-c2ccccc2)n1`, the “hERG current change (%, negative = inhibition) at 1uM” value is given as 10.2%. Turning to `CC(C)Oc1ccc(CSc2ncn[nH]2)cc1`, the “hERG current change (%, negative = inhibition) at 1uM” value turned out to be 17.4%. Next, `Cc1ccc(/C=N/NC(=O)c2nnn(-c3nonc3N)c2CSc2ccc(Cl)cc2)cc1`: 9.71%. Next, `COc1ccccc1C(=O)NC(=S)Nc1ccc2[nH]c(=O)[nH]c2c1`: 18.5%.

(Values after paper PMC4336329 (PLoS ONE, 2015).)
